# Results reported in PubChem BioAssay AID624296 (National Center for Advancing Translational Sciences (NCATS), 2012).
# Among all 350,000 compounds or so, about 9,900 (2.8%) were called active. The shares of active, inactive and inconclusive entries below differ from those in the screen. Calls follow the shape of the dose curve; as a rule, active = well fitted activation curve with a large enough effect; inconclusive = small, poorly fitted or top-dose-only effect; inactive = no such curve, though single readings can be large or run the other way. No potency is given beside an inconclusive call; the fits are too rough.
# Assay: A quantitative high throughput screen for small molecules that induce DNA re-replication in MCF 10a normal breast cells. Also: nearly all actives have a fitted effect of over 50% in size.
# Details: MCF 10A DNA re-replication, Hoechst nuclear intensity, 48 h; series mostly up to 46.1 µM
# Potency is read from the fitted curve at half-maximal effect; tags tell the direction and shape of the fitted curve.
row,Compound,Potency
1,CCCCN(C(=O)c1cc2ccccc2o1)c1c(N)n(CCCC)c(=O)[nH]c1=O,inactive
2,CCN(C(=O)COC(=O)/C=C/c1nc2ccccc2s1)c1c(N)n(Cc2ccccc2)c(=O)[nH]c1=O,inactive
3,CN1CCN(c2ccc(NC(=O)c3ccc(Oc4ccccc4)cc3)cc2)CC1,"inconclusive [activator, single point]"
4,Cc1cccc(OCC(O)CN2CCN(CCN3C(=O)c4cccc5cccc(c45)C3=O)CC2)c1C (stereo unspecified),"inconclusive [activator, single point]"
5,CNC(=O)c1nnsc1S(=O)(=O)c1ccc(Cl)cc1,active: 1.46 µM
6,CCC(CO)Oc1cc(NC(=O)c2cccc(F)c2)c2ncn(C(C)C)c2c1 (stereo unspecified),inactive
7,CCN1C(C#N)=C(C#N)N=C(C)CC1(C)C,"inconclusive [activator, single point]"
8,O=C(CC1SC(=Nc2ccccc2)N(Cc2ccccn2)C1=O)Nc1ccc(Br)cc1 (stereo unspecified),active: 23.1 µM
9,Cc1ccccc1NC(=O)Nc1ccc(C(F)(F)F)cc1,"inconclusive [activator, partial curve, poor fit]"
10,Cc1cccc(-n2ncc3c(N(C)Cc4ccccc4)ncnc32)c1,"inconclusive [activator, partial curve]"
11,Cn1ncc(Br)c1C(=O)NC12CC3CC(CC(C3)C1)C2,"inconclusive [activator, partial curve, poor fit]"
12,O=C1c2cc(F)ccc2-n2c1nc1ccccc1c2=O,"inconclusive [activator, partial curve, poor fit]"
13,O=C(OCc1ccc(Br)cc1)c1ccncc1,inactive
14,C/C(=N\NC(=O)CC1N=C(Cc2ccccc2)NNC1=O)c1ccc(C)cc1 (stereo unspecified),"inconclusive [activator, single point]"
15,Cc1n[nH]c(=S)n1-c1ccc(Cl)cc1,"inconclusive [activator, partial curve]"
16,CCCN1C(=O)C(Cc2nc3ccccc3c(=O)n2-c2ccccc2)c2cc(C)ccc21 (stereo unspecified),"inconclusive [activator, single point]"
17,CC(=O)N(Cc1ccc(F)cc1)C1=C(NCCc2ccccc2)C(=O)c2ccccc2C1=O,"inconclusive [activator, full curve, poor fit]"
18,c1ccc(CSc2nnc(-c3ccccc3)c(-c3ccccc3)n2)cc1,active: 8.2 µM
19,COc1ccc(NC(=O)c2cccc(Oc3ccccc3)c2)cn1,"inconclusive [activator, partial curve]"
20,CC(C)NC(=O)c1ccccc1NS(=O)(=O)c1ccc(Br)s1,"inconclusive [activator, partial curve, poor fit]"
21,COC(=O)c1ccccc1CCC(C)=O,"inconclusive [activator, partial curve, poor fit]"
22,Cc1ccc(Cn2ccc(NC(=O)c3cc(-c4cccc(Cl)c4)on3)n2)cc1,"inconclusive [activator, single point]"

row,Compound,Potency
1,Cc1nn(C(=O)CCCC(=O)NCc2ccccc2)c2ccccc12,"inconclusive [activator, single point]"
2,Cc1ccc(C(=O)NCCCC(=O)O)o1,inactive
3,COc1ccc(-c2cc(C#N)nc(N3CCN(C)CC3)n2)cc1,"inconclusive [activator, single point]"
4,Cc1cc(NC(=O)CSc2nnc(COc3ccccc3)n2Cc2ccco2)no1,"inconclusive [activator, partial curve, poor fit]"
5,CCOC(=O)c1ccc(NS(C)(=O)=O)cc1,"inconclusive [activator, partial curve, poor fit]"
6,COc1cc(/C=C/C(=O)NC(C)CCc2ccccc2)cc(OC)c1OC (stereo unspecified),"inconclusive [activator, single point]"
7,Cc1ccc(S(=O)(=O)N2C(=O)c3cccc4cccc2c34)cc1,active: 9.2 µM
8,CCOC(=O)C1(C)/C(=N/Nc2ccccc2Cl)C(=O)C(=O)N1c1ccccc1 (stereo unspecified),"inconclusive [activator, single point]"
9,O=C(CSc1nnc(-c2cc3ccccc3cc2O)n1Cc1ccco1)c1ccc(F)cc1,"inconclusive [activator, single point]"
10,COc1ccc(CN2CN(c3ccc(Cl)cc3)C(=O)N(n3cnnc3)C2)cc1,inactive
11,CS(=O)(=O)NCCOc1ccc(S(=O)(=O)NCCOc2ccccc2)cc1,"inconclusive [activator, partial curve, poor fit]"
12,Cc1ccc(/C=N/NC(=O)c2cccc3ccccc23)o1,"inconclusive [activator, partial curve, poor fit]"
13,Cc1ccc(Cn2nnc3c(=O)[nH]c(C4CCN(S(=O)(=O)c5ccc(S(=O)(=O)NC6CC6)cc5)CC4)nc32)cc1,"inconclusive [activator, single point]"
14,C#CC(=O)N(c1ccc(OC)c(OC)c1)C(C(=O)NC1CCCC1)c1cccs1 (stereo unspecified),"inconclusive [activator, single point]"
15,Cc1ccc(-c2cc(C(F)(F)F)n3ncc(C(=O)N4CCN(C)CC4)c3n2)cc1,inactive
16,CC1(C)CC(C(CCN(Cc2ccccc2)C(=O)c2ccco2)c2ccc(F)cc2)CCO1 (stereo unspecified),active: 8.2 µM
17,O=c1c2ccccc2c(C=NCCCN2CCOCC2)c(O)n1Cc1ccc2c(c1)OCO2,"inconclusive [activator, single point]"
18,Cn1c(C(=O)NCCCN2CCN(c3ccccc3F)CC2)cc2c(=O)[nH]c3ccccc3c21,active: 23.1 µM
19,Cc1c(C(=O)Nc2ccc(S(=O)(=O)Nc3ncccn3)cc2)oc2ccc(F)cc12,inactive
20,O=C(Nc1cccn2ncnc12)C(F)(F)F,"inconclusive [activator, single point]"
21,CC(C)CC(COCc1cccc(Cl)c1)N1CCN(C(=O)c2ccc(C(F)(F)F)cc2)CCC1=O (stereo unspecified),"inconclusive [activator, single point]"
22,CC(C)=C[C@@H]1C[C@H](C)[C@H]2CC[C@H](C)c3c(O)c(O)c(C)c1c32,"inconclusive [activator, single point]"

row,Compound,Potency
1,CCC[N+](CC#Cc1ccccc1)(CCC)CC(=O)c1ccc(Cl)cc1,"inconclusive [activator, single point]"
2,Nc1c(C(=O)N2CCCC2)sc2nc3c(cc12)CCCCCC3,active: 14.6 µM
3,COc1cc(SC)ccc1C(=O)Nc1ccc(C)cc1C,"inconclusive [activator, single point]"
4,Cc1ccc(Nc2c(N)c(=O)oc3ccccc23)cc1,"inconclusive [activator, single point]"
5,Cc1ccc(-c2cc3nn(-c4ccccc4)c(N)c3c(=O)o2)cc1,inactive
6,COc1ccc2c(c1)C(=O)N1[C@H]3c4cc(OC)ccc4OC[C@@H]3[C@H](c3ccccc3)[C@]1(C)C(=O)N2,"inconclusive [activator, single point]"
7,CN(C(=O)COC(=O)c1cnc(Cl)c(Cl)c1)C1CCCCC1,inactive
8,COc1nc(-c2ccccc2)ccc1-c1noc(-c2cccs2)n1,"inconclusive [activator, partial curve]"
9,COc1cccc(C2CC(c3cccs3)=NN2C(=O)CSc2nc3ccccc3s2)c1OC (stereo unspecified),"inconclusive [activator, partial curve, poor fit]"
10,Cc1cccn2c(=O)c3cc(C(=O)NCCN4CCOCC4)c(=N)n(Cc4ccc(F)cc4)c3nc12,active: 2.31 µM
11,Cn1cc(C2OC(=O)c3ccccc32)c2ccccc21 (stereo unspecified),inactive
12,CCOc1ccc(NC(=O)CSc2nnc(C)n2C2CC2)cc1S(=O)(=O)N1CCCC1,"inconclusive [activator, partial curve, poor fit]"
13,O=C(N/N=C\C=C\c1ccc([N+](=O)[O-])o1)c1cccs1,active: 8.2 µM
14,CCCCN1C(=O)C(C(=O)OCc2ccccc2)CC2=C1CCCC2=O (stereo unspecified),"inconclusive [activator, partial curve, poor fit]"
15,O=C(CSc1nc2ncccc2[nH]1)NCc1ccco1,"inconclusive [activator, single point]"
16,COC(=O)c1cc(=O)n(C2CC2)c(=NC2CC2)s1,"inconclusive [activator, partial curve, poor fit]"
17,Cc1cc(O)cc2c1C1CCC3(C)C(O)CCC3C1C=C2 (stereo unspecified),"inconclusive [activator, single point]"
18,O=C(CN1C2CCCC1CC(NC(=O)c1ccccc1)C2)Nc1ccccc1C(F)(F)F (stereo unspecified),"inconclusive [activator, single point]"
19,CNC(=O)CCCCC(=O)N/N=C/c1ccc(Cl)cc1Cl,"inconclusive [activator, full curve, poor fit]"
20,CCN1C(=O)[C@H]2[C@@H](c3ccc(-c4ccc(F)cc4)c(OC)c3)N3CCCC[C@@]3(C(=O)OC)[C@H]2C1=O,"inconclusive [activator, single point]"
21,CC1CCN(C(=O)Cn2nnc(-c3cccs3)n2)CC1,"inconclusive [activator, single point]"
22,COc1ccc(CNC(=O)CN(c2ccc(OC)c(Cl)c2)S(=O)(=O)c2ccc(C)cc2)cc1,"inconclusive [activator, partial curve, poor fit]"
